# In patent US20240209078A1 (Amgen, published 2024):
# T1: human CLL1 (C-type lectin-like receptor, CLEC12A, MICL) (human, UniProt Q5QGZ9 1-265)
# T1 sequence (looked up): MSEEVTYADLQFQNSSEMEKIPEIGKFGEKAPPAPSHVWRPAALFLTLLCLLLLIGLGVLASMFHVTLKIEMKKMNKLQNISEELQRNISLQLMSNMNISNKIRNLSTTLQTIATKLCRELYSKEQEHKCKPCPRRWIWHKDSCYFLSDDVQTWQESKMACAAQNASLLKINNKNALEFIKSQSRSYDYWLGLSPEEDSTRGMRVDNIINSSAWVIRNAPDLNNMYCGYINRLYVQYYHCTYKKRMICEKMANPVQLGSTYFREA
# B1: MS 15-B12 CC × I2M2 × G4 × scFc × G4 × CH3 005-D5 CC × I2M2 (bispecific antibody)
# chain: QVQLQESGPGLVKPSETLSLTCTVSGGSISSSSYFWGWIRQPPGKCLEWIGNIYYSGSSNYNPSLKSRVTISVDTSKNQFSLKLSSVTAADTAVYYCARLPRGDRDAFDIWGQGTMVTVSSGGGGSGGGGSGGGGSDIVMTQSPSSLSASVGDRVTITCRASQGISNYLAWYQQKPGKVPKLLIYAASTLQSGVPSRFSGSGSGTDFTLTISSLQPEDFATYYCQQSYSTPFTFGCGTKVEIKSGGGGSEVQLVESGGGLVQPGGSLKLSCAASGFTFNKYAINWVREAPGKGLEWVARIRSKYNNYATYYADAVKDRFTISRDDSKNTAYLQMNNLKTEDTAVYYCVRNANFGTSYISYFAYWGQGTLVTVSSGGGGSGGGGSGGGG[sequence of about 350 residues with a human IgG1 Fc omitted]GGGGSGGGGSGGGGSGGGGSGGGGSGGGGS[sequence of human IgG1 Fc with R292C N297G V302C (EU numbers) omitted]GGGGEVQLLESGGGLVQPGGSLRLSCAASGFSFSSYPINWVRQAPGKCLEWVGVIWTGGGTNYASSVKGRFTISRDNSKNTVYLQMNSLRAEDTAVYYCAKSRGVYDFKGRGAMDYWGQGTLVTVSSGGGGSGGGGSGGGGSDIVMTQSPDSLAVSLGERATINCKSSQSLLYSSNQKNYFAWYQQKPGQPPKLLIYWASTRESGVPDRFSGSGSGTDFTLTISSLQAEDVAVYYCQQYYSYPYTFGCGTKLEIKSGGGGSEVQLVESGGGLVQPGGSLKLSCAASGFTFNKYAINWVREAPGKGLEWVARIRSKYNNYATYYADAVKDRFTISRDDSKNTAYLQMNNLKTEDTAVYYCVRNANFGTSYISYFAYWGQGTLVTVSSGGGGSGGGGSGGGG[sequence of about 120 residues omitted]
# B2: CL1 9-G4 CC × 4G10.04 × scFc × FL 4-E9 CC × 4G10.04 (bispecific antibody)
# chain: QVQLVQSGAEVKKPGASVKVSCKASGYTFTDYYMHWVRQAPGQCLEWMGWINPNSGGPNYAQKFQGRVTMTRDTSISTAHMELSRLRSDDTAVYYCAREKHAVAGIGFDYWGQGTLVTVSSGGGGSGGGGSGGGGSDIQMTQSPSSVSASVGDRVTITCQASQDISNYLNWYQQKPGKAPKLLIYAASSLESGVPSRFSGSGSGTDFTLTISSLQPEDFATYYCQQANSFPLTFGCGTKVDIKSGGGGSEVQLVESGGGLVQPGGSLKLSCAASGFTFSKYAMNWVREAPGKGLEWVARIRSKYNNYATYYAEAVKDRFTISRDDSKNTVYLQMNNLKTEDTAVYYCVRAENIGKSYISYWAYWGQGTLVTVSSGGGGSGGGGSGGGGSQTVVTQEPSLTVSPGGTVTMT[sequence of about 80 residues omitted]FGGGTKLTVLGGGGSGGGGSGGGGS[sequence of human IgG1 Fc with R292C N297G V302C (EU numbers) omitted]GGGGSGGGGSGGGGSGGGGSGGGGSGGGGS[sequence of human IgG1 Fc with R292C N297G V302C (EU numbers) omitted]GGGGSGGGGSGGGGSQVTLKESGPTLVKPTETLTLTCTVSGFSFRNARMGVSWIRQPPGKCLEWLAHIFSNDEKSYSTSLKSRLTISKDTSKSQVVLTMTNMDPVDTATYFCARVPEYSSGWYRFDYWGQGTLVTVSSGGGGSGGGGSGGGGSDIQMTQSPSSLSASVGDRVTISCRASQSIRSYLNWYQQKPGKAPKLLIYATSSLQGGVPSRFSGSGSGTDFTLTISSLQPEDFATYYCQQSYSTPFTFGCGTKVEIKSGGGGSEVQLVESGGGLVQPGGSLKLSCAASGFTFSKYAMNWVREAPGKGLEWVARIRSKYNNYATYYAEAVKDRFTISRDDSKNTVYLQMNNLKTEDTAVYYCVRAENIGKSYISYWAYWGQGTLVTVSSGGGGSGGGGSGGGGSQTVVTQEPSLTVSPGGTVTMT[sequence of about 80 residues omitted]FGGGTKLTVL
# B3: CH3 15-E11 CC × I2L × (G4S)3 × scFc × (G4S)3 × MS 15-B12 CC × I2L (bispecific antibody)
# chain: QVQLVQSGAEVKKPGASVKVSCKASGYTFTNYWMNWVRQAPGQCLEWMGNIAYGVKGTNYNQKFQGRVTMTVDTSSSTAYMELSRLRSDDTAVYYCATRYFYVMDYWGQGTLVTVSSGGGGSGGGGSGGGGSDIQMTQSPSSLSASVGDRVTITCRASQDISNYLNWYQQKPGKVPKLLIYYTSRLHSGVPSRFSGSGSGTDFTLTISSLQPEDVATYYCVQYAQFPLTFGCGTKVEIKSGGGGSEVQLVESGGGLVQPGGSLKLSCAASGFTFNKYAMNWVRQAPGKGMEWVARIRSKYNNYATYYADAVKDRFTISRDDSKNTLYLQMNNLKTEDTAVYYCVRAGNFGSSYISYFAYWGQGTLVTVSSGGGGSGGGGSGGGGSQTVVTQEPSLTVSPGGTVTITCGSSTGAVTSGNYPNWIQKKPGQAPRGLIGGTKFLAPGTPARFSGSLEGGKAALTLSGVQPEDEAEYYCVLYYSNRWVFGSGTKLTVLGGGGSGGGGSGGGGS[sequence of human IgG1 Fc with R292C N297G V302C (EU numbers) omitted]GGGGSGGGGSGGGGSGGGGSGGGGSGGGGS[sequence of human IgG1 Fc with R292C N297G V302C (EU numbers) omitted]GGGGSGGGGSGGGGSQVQLQESGPGLVKPSETLSLTCTVSGGSISSSSYFWGWIRQPPGKCLEWIGNIYYSGSSNYNPSLKSRVTISVDTSKNQFSLKLSSVTAADTAVYYCARLPRGDRDAFDIWGQGTMVTVSSGGGGSGGGGSGGGGSDIVMTQSPSSLSASVGDRVTITCRASQGISNYLAWYQQKPGKVPKLLIYAASTLQSGVPSRFSGSGSGTDFTLTISSLQPEDFATYYCQQSYSTPFTFGCGTKVEIKSGGGGSEVQLVESGGGLVQPGGSLKLSCAASGFTFNKYAMNWVRQAPGKGMEWVARIRSKYNNYATYYADAVKDRFTISRDDSKNTLYLQMNNLKTEDTAVYYCVRAGNFGSSYISYFAYWGQGTLVTVSSGGGGSGGGGSGGGGSQTVVTQEPSLTVSPGGTVTITCGSSTGAVTSGNYPNWIQKKPGQAPRGLIGGTKFLAPGTPARFSGSLEGGKAALTLSGVQPEDEAEYYCVLYYSNRWVFGSGTKLTVL
# B4: CH3 15-E11 CC × I2M2 × (G4S)3 × scFc × (G4S)3 × MS 15-B12 CC × I2M2 (bispecific antibody)
# chain: QVQLVQSGAEVKKPGASVKVSCKASGYTFTNYWMNWVRQAPGQCLEWMGNIAYGVKGTNYNQKFQGRVTMTVDTSSSTAYMELSRLRSDDTAVYYCATRYFYVMDYWGQGTLVTVSSGGGGSGGGGSGGGGSDIQMTQSPSSLSASVGDRVTITCRASQDISNYLNWYQQKPGKVPKLLIYYTSRLHSGVPSRFSGSGSGTDFTLTISSLQPEDVATYYCVQYAQFPLTFGCGTKVEIKSGGGGSEVQLVESGGGLVQPGGSLKLSCAASGFTFNKYAINWVREAPGKGLEWVARIRSKYNNYATYYADAVKDRFTISRDDSKNTAYLQMNNLKTEDTAVYYCVRNANFGTSYISYFAYWGQGTLVTVSSGGGGSGGGGSGGGG[sequence of about 120 residues omitted]GGGSGGGGSGGGGS[sequence of human IgG1 Fc with R292C N297G V302C (EU numbers) omitted]GGGGSGGGGSGGGGSGGGGSGGGGSGGGGS[sequence of human IgG1 Fc with R292C N297G V302C (EU numbers) omitted]GGGGSGGGGSGGGGSQVQLQESGPGLVKPSETLSLTCTVSGGSISSSSYFWGWIRQPPGKCLEWIGNIYYSGSSNYNPSLKSRVTISVDTSKNQFSLKLSSVTAADTAVYYCARLPRGDRDAFDIWGQGTMVTVSSGGGGSGGGGSGGGGSDIVMTQSPSSLSASVGDRVTITCRASQGISNYLAWYQQKPGKVPKLLIYAASTLQSGVPSRFSGSGSGTDFTLTISSLQPEDFATYYCQQSYSTPFTFGCGTKVEIKSGGGGSEVQLVESGGGLVQPGGSLKLSCAASGFTFNKYAINWVREAPGKGLEWVARIRSKYNNYATYYADAVKDRFTISRDDSKNTAYLQMNNLKTEDTAVYYCVRNANFGTSYISYFAYWGQGTLVTVSSGGGGSGGGGSGGGG[sequence of about 120 residues omitted]
# Experiments:
# Test in all cases: cell-based or functional assay
# [1] = biological target: T2, human CDH3 (Cadherin-3, P-Cadherin) (human, UniProt P22223 108-829)
# human MSLN (mesothelin) [2] = biological target: T3, human MSLN (mesothelin) (human, UniProt Q13421 37-598)
# [3] = biological target: T2, human CDH3 (Cadherin-3, P-Cadherin); remark: listed apart in the source
# human MSLN (mesothelin) [4] = biological target: T3, human MSLN (mesothelin); remark: listed apart in the source
# CD3ε chain = CD3ε chain (human, UniProt P07766 23-126, limits assumed)
# Chain of CD3ε chain (P07766 23-126 limits assumed): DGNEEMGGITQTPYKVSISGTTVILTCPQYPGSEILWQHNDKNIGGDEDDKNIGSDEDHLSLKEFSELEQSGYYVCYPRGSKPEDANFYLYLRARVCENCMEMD
# [5] = biological target: T1, human CLL1 (C-type lectin-like …)
# [6] = biological target: human FLT3 (Fms like tyrosine kinase 3, CD135) (human, UniProt P36888 27-993)
Binder,"cytotoxicity EC50, GSU KO MSLN cells [1]","cytotoxicity EC50, GSU KO CDH3 cells (human MSLN (mesothelin) [2])","cytotoxicity EC50, HCT 116 KO MSLN cells [3]","cytotoxicity EC50, HCT 116 KO CDH3 cells (human MSLN (mesothelin) [4])",Activity reduction of single CD3 binding domain in molecule compared to high affinity binding domain I2C with KD 1.2E-08M (CD3ε chain),"cytotoxicity EC50, CHO huCLL1 cells [5]","cytotoxicity EC50, CHO huFLT3 cells [6]"
B1,2.63 nM,0.156 nM,0.0041 nM,0.0044 nM,–,–,–
B2,–,–,–,–,~6 fold,0.089 nM,0.17 nM
B3,7.66 nM,0.315 nM,0.0244 nM,0.0378 nM,–,–,–
B4,0.136 nM,0.0915 nM,0.00024 nM,0.0011 nM,–,–,–
